This list was built around the results that the source calls inconclusive (neither active nor inactive); the mix of calls is not that of the screen. For some of these results: A potency beside an inconclusive call is a rough fit, not a confirmed value. Activity calls are given as the source filed them. Unless noted, the call rests on the fitted dose curve; in most records, active means well fitted curve in the direction sought with a large enough effect; inconclusive means small, poorly fitted or top-dose-only effect, or another doubt; inactive means no such curve, though single readings can be large; an effect the other way counts as inactive or inconclusive.
Tests used:
[1] = Cell Viability - Hek293 (AID 427;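 active means compounds whose dose-response curve shows a full or clear partial loss of cell viability, called from curve shape rather than a numeric limit; inconclusive means weak partial curves or an effect only at the top dose; inactive means no dose-dependent loss of viability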;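 further: potency means the concentration at half of the fitted maximal effect; cells exposed to compound for 40 hours at 37 °C before reading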); settings: qHTS
Method in brief: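 Luminescent ATP read-out (CellTiter-Glo, 20 min RT) after 40 hr compound exposure at 37 °C in complete medium. Signal normalized to DMSO (basal) and 100 uM tamoxifen (100% inhibition); concentration-response fitted with the standard Hill equation to give AC50.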

[2] = Cell Viability - N2a (AID 540); settings: N2a mouse neuroblastoma cell viability; activity change, negative = cytotoxicity: at 92.2 µM (top of the series);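 further: plate controls were DMSO alone for no effect and tamoxifen control for full effect; nearly all actives have a fitted effect of over 45% in size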
Method in brief: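 Mouse neuroblastoma N2a cells (1500/well) were preincubated 5 hr at 37 °C, then exposed to compounds for 40 hr at 37 °C in complete medium. Viability was read as intracellular ATP by CellTiter-Glo luminescence; AC50 from Hill fits.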

[3] = Cell Viability - NIH 3T3 (AID 541); settings: NIH 3T3 cell viability, qHTS; activity change, negative = cytotoxicity: at 92.2 µM (top of the series);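 further: plate controls were DMSO alone for no effect and tamoxifen positive control for full effect; nearly all actives have a fitted effect of over 25% in size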
Method in brief: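 NIH 3T3 mouse embryo fibroblasts (1000 cells/well) were plated in complete medium and treated with compound for 40 hr at 37 °C. Viability was read as intracellular ATP by CellTiter-Glo luminescence; AC50 values came from Hill-equation fits of concentration-response data.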

[4] = Cell Viability - HUV-EC-C (AID 542); further: potency means the concentration at half of the fitted maximal effect; nearly all actives have a fitted effect of over 35% in size
Method in brief: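 HUV-EC-C normal human vascular endothelial cells, 1000 cells/well, pre-incubated 5 hr at 37 °C, then exposed to compounds for 40 hr at 37 °C in complete medium. Viability measured as intracellular ATP by CellTiter-Glo luminescence; AC50 from Hill fits.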

[5] = Cellular Toxicity (caspase-3) Jurkat (AID 655); settings: Jurkat caspase-3 activation, luminescence; caspase-3 activation: at 92.2 µM (top of the series), DMSO = 0%, tamoxifen = 100%;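 further: cells exposed to compound for 16 h at 37 °C before reading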
Method in brief: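 5000 Jurkat cells/well; compound 16 hr, 37 °C; Caspase-Glo 3/7 added, 20 min RT; luminescence read. Norm: DMSO = 0%, tamoxifen 100 uM = 100%. AC50, Hill model.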

[6] = Cellular Toxicity (caspase-3) SHSY5Y (AID 657);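 further: potency means the concentration at half of the fitted maximal effect; cells exposed to compound for 16 hours at 37 °C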
Method in brief: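 qHTS, SH-SY5Y, 1500 cells/well, 5 h pre-incubation 37 °C; compound 16 h 37 °C; Caspase-Glo 3/7 1 h RT; luminescence. Norm.: DMSO = 0, 10 uM staurosporine = 100%. Hill fit → AC50.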

[7] = Cellular Toxicity (caspase-3) MRC-5 (AID 659); settings: Potency: caspase-3 activation;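 further: 0% = DMSO basal and 100% = 10 µM staurosporine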
Method in brief: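 Luminescence from caspase-cleaved aminoluciferin substrate (Caspase-Glo 3/7, 1 hr RT) reports caspase 3/7 activity in MRC-5 lung fibroblasts after 16 hr compound exposure. Normalized to DMSO basal and 10 uM staurosporine as 100%; AC50 from Hill fits.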

[8] = biological target: Cytochrome P450 3A4 (Homo sapiens) (UniProt P08684); assay: qHTS Assay for Activators of Cytochrome P450 3A4 (AID 885); settings: recombinant CYP3A4, Luciferin-PPXE luminescence, 60 min; activity change, positive = activation: at 57.1 µM (top of the series); further: potency means the concentration at half of the fitted maximal effect; nearly all actives have a fitted effect of over 65% in size
Chain of UniProt P08684 (P08684 whole entry, looked up): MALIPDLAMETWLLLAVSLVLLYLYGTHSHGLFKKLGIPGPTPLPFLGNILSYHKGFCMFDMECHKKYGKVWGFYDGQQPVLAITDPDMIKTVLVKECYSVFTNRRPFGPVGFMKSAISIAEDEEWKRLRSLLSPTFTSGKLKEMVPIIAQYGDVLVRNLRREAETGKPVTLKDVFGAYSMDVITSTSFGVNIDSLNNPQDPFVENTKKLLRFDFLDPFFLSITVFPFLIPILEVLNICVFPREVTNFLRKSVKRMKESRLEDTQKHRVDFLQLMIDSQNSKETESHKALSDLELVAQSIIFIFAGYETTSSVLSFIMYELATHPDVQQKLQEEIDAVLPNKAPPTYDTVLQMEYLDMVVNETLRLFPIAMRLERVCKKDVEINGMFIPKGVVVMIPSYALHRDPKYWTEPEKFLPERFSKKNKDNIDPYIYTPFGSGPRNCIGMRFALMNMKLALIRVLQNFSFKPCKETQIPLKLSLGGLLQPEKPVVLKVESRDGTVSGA
Method in brief: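 20nM CYP3A4 + 25uM Luciferin-PPXE (=KM), 200mM KPO4; cpd 10 min RT; NADPH regen, 60 min RT; stop w/ detection buffer, 20 min; luminescence. Normalized to 57 uM ketoconazole.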

[9] = Cell Viability - LYMP2-004 (AID 966); settings: LYMP2-004 lymphoblastoid cell viability, qHTS; activity change, negative = cytotoxicity: at 92.2 µM (top of the series); further: potency means the concentration at half of the fitted maximal effect; nearly all actives have a fitted effect of over 65% in size
Method in brief: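 Human lymphoblastoid cells (2500/well) in complete medium were treated with compounds for 24 hr at 37 C, then intracellular ATP was measured by CellTiter-Glo luminescence. AC50 values came from Hill-equation fits of concentration-response data.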

[10] = Cell Viability - LYMP2-005 (AID 967); further: potency means the concentration at half of the fitted maximal effect
Method in brief: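 Acute cytotoxicity is scored as a concentration-dependent drop in intracellular ATP in human lymphoblastoid LYMP2-005 cells after 24 h compound treatment. ATP is quantified by luciferase luminescence, and AC50 is derived by Hill-equation modelling.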

[11] = Cell Viability - LYMP2-013 (AID 970); settings: LYMP2-013 lymphoblastoid cells viability; activity change, negative = cytotoxic: at 92.2 µM (top of the series); further: potency means the concentration at half of the fitted maximal effect; nearly all actives have a fitted effect of over 55% in size
Method in brief: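 Human lymphoblastoid cells, 2500/well, were preincubated 5 hr at 37 C, then treated with compounds for 24 hr at 37 C in complete medium. Intracellular ATP was read by CellTiter-Glo luminescence; AC50 from Hill-equation fits of concentration-response data.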

[12] = Cell Viability - LYMP2-017 (AID 972); further: potency means the concentration at half of the fitted maximal effect; nearly all actives have a fitted effect of over 55% in size
Method in brief: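 Human lymphoblastoid cells (2500/well) were seeded in complete medium, held 5 hr at 37 C, then exposed to compounds for 24 hr at 37 C. Intracellular ATP was read by CellTiter-Glo luminescence after 30 min at room temperature, with AC50 values from Hill-equation fits.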

[13] = Cell Viability - LYMP2-021 (AID 974);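 further: potency means the concentration at half of the fitted maximal effect; compound exposure lasts 24 hours at 37 °C; nearly all actives have a fitted effect of over 55% in size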
Method in brief: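 Human lymphoblastoid cells (2500/well) were preincubated 5 hr at 37 C, then exposed to compounds for 24 hr at 37 C in complete medium. Intracellular ATP was read by CellTiter-Glo luminescence; AC50 came from Hill-equation fits of concentration-response data.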

[14] = Cell Viability - LYMP2-007 (AID 979);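 further: potency means the concentration at half of the fitted maximal effect; cells exposed to compound for 24 h before reading; nearly all actives have a fitted effect of over 60% in size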
Method in brief: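 Human lymphoblastoid cells (2500/well) were plated in complete medium, incubated 5 hr at 37 C, then exposed to compounds for 24 hr at 37 C. Intracellular ATP was read by CellTiter-Glo luminescence after 30 min at room temperature; AC50 from Hill fits.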

[15] = Cell Viability - LYMP2-010 (AID 981); further: potency means the concentration at half of the fitted maximal effect; nearly all actives have a fitted effect of over 55% in size
Method in brief: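 Human lymphoblastoid LYMP2-010 cells (2500/well) were preincubated 5 hr at 37 C, then exposed to compounds for 24 hr at 37 C in complete medium. Intracellular ATP was measured by CellTiter-Glo luminescence after 30 min at room temperature; AC50 from Hill-fitted concentration-response.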

[16] = Cell Viability - LYMP2-014 (AID 983); settings: LYMP2-014 lymphoblastoid cells, viability qHTS; activity change, negative = cytotoxicity: at 92.2 µM (top of the series); further: potency means the concentration at half of the fitted maximal effect; nearly all actives have a fitted effect of over 50% in size
Method in brief: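 Human lymphoblastoid cells (2500/well) were pre-incubated 5 hr at 37 C, then exposed to compounds in complete medium for 24 hr at 37 C. Intracellular ATP was read by CellTiter-Glo luminescence after 30 min at room temperature; AC50 from Hill fits.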
Tags describe the fitted curve by direction and shape.

COP(=O)(OC)O/C(=C\Cl)c1cc(Cl)c(Cl)cc1Cl
inconclusive: Potency [1] 101 µM [single point] | activity change, negative = cytotoxicity [2] -38.4% | activity change, negative = cytotoxicity [3] -27.5% | Potency [4] 50.1 µM [falling, single point] | caspase-3 activation [5] 54.8% | Potency [6] 39.8 µM [rising, partial curve] | Potency [8] 7.94 µM [activator, full curve] | Potency [9] 50.1 µM [cytotoxic, partial curve, poor fit] | Potency [10] 79.4 µM [cytotoxic, single point] | Potency [11] 79.4 µM [cytotoxic, partial curve, poor fit] | Potency [12] 50.1 µM [cytotoxic, partial curve, poor fit] | Potency [13] 79.4 µM [cytotoxic, single point] | Potency [14] 39.8 µM [cytotoxic, partial curve] | Potency [15] 50.1 µM [cytotoxic, partial curve] | Potency [16] 100 µM [cytotoxic, single point]
inactive: Potency [7]
